# Measured values from the supplement of paper PMC3334620.
# Whole data set: some 33,000 sequences, median “E-score (-0.5 to 0.5)” near -0.054, cut for the highest 2% near 0.35. This is one part of the list.
# Target: T1, Stb5 (UniProt P38699)
# T1 sequence: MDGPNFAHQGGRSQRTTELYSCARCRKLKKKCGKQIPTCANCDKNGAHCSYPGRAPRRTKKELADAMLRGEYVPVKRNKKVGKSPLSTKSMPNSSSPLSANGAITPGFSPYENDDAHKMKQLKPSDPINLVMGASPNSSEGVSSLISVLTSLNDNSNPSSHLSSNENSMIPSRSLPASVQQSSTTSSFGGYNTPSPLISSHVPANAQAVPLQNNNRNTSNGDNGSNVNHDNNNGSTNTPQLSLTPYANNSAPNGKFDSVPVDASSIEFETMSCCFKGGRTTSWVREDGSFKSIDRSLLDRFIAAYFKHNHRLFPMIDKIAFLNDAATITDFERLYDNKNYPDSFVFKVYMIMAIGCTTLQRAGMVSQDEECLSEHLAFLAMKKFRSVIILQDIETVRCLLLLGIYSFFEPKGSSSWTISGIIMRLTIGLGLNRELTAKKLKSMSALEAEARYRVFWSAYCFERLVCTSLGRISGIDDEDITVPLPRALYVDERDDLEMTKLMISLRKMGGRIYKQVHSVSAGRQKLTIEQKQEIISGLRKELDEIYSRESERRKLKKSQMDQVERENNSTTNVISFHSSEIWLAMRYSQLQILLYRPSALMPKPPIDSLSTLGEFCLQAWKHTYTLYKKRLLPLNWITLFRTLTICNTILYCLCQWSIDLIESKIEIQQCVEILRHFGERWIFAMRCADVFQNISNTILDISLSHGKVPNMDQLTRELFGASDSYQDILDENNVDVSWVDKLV
# Test: PBM E-score (8-mer binding enrichment) (E-score (-0.5 to 0.5)); higher = stronger / more preferred TF binding; most listed sequences are background and not binding sites
# Settings: protein concentration: 200 nM; construct: GST-full length
# In short: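 Bound GST-tagged yeast transcription factors, applied at about 100-200 nM to double-stranded universal all-10-mer Agilent arrays, were detected with fluorescent anti-GST. Scans were normalised with masliner. A modified Wilcoxon-Mann-Whitney statistic, the E-score, was assigned to each ungapped eight-base word pooled with its reverse complement by the Universal PBM Analysis Suite.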
row,Sequence,PBM E-score
1,ACATAACT,0.106
2,GGTTGACA,-0.0684
3,GCTGAGCC,0.00669
4,AGAAAATG,-0.165
5,AGCTTCAG,-0.297
6,AAGAAAGG,-0.0583
7,CATGCGAG,7e-05
8,ATCGAAGC,-0.103
9,ACAGGGAT,-0.183
10,ACCAACCA,-0.0405
11,CAGGGACC,-0.251
12,CGTCGTTC,0.066
13,GAATGCGC,0.15
14,CGGTGTGA,0.441
15,CCTGGGGA,-0.268
16,ATGACTAA,-0.114
17,ACCGATGC,0.325
18,CAAGAGCG,-0.0654
19,GTAGACAC,0.111
20,AATGTGGA,-0.214
21,CATTCAGG,-0.182
22,ACAGGCAA,-0.178

row,Sequence,PBM E-score
1,CATAGGGC,-0.0131
2,GACGGGTA,-0.044
3,ATTGCCAA,-0.119
4,AGAGCGGC,0.272
5,ATATGATC,-0.0325
6,GCCAAAGA,-0.13
7,GTGAAGCA,-0.165
8,GTGGGGTA,-0.00964
9,GAGGTTGC,-0.0524
10,AGAACTCC,0.0555
11,TGTTCGAA,-0.0722
12,AACATGAA,-0.0586
13,ACTCGTTG,-0.151
14,GAAATCGA,0.00973
15,CCCTTCGA,-0.132
16,AGCTTCAA,-0.144
17,TAGTGTCA,-0.163
18,AGAATCCT,-0.233
19,AAGACAGC,0.0552
20,ATTCACCC,0.0273
21,ATTTTAAC,0.144
22,TCCCGGAA,0.234

row,Sequence,PBM E-score
1,GGAATTAC,0.258
2,CCGTAATA,0.188
3,CGAGGCAC,-0.0847
4,CTCGTTTC,-0.214
5,CGAGAGAA,-0.241
6,TACGTTGA,-0.17
7,CGCTCTCA,-0.0898
8,AATAGGAT,0.0764
9,GTTCGAAA,0.0207
10,AAGTTTTA,-0.121
11,ATAGGTTC,-0.00207
12,AACCCCCT,-0.247
13,TACAGTAA,-0.219
14,CTTATGAA,0.0638
15,CGTTATCA,0.042
16,ATGACGGG,0.257
17,ATTACATG,0.136
18,CATGGAAG,-0.0777
19,AAAGTAGC,-0.112
20,AAGCAATC,-0.152
21,ACTCTGTA,-0.104
22,AACGCCAT,-0.106

row,Sequence,PBM E-score
1,CCAACGCG,-0.0276
2,ATGACCAT,-0.0475
3,CTGCATGA,-0.304
4,AACGACGT,-0.0504
5,CACGAAGG,-0.0971
6,CCCCTAAC,-0.247
7,CCCGGCGA,0.272
8,CATCACAG,-0.0936
9,CTATCTTC,-0.151
10,GCAAACGA,-0.147
11,ACGCGAGA,-0.336
12,GAAGCGGA,0.282
13,AGGACTAT,-0.102
14,GAGCAAAC,-0.144
15,ACACCCGA,0.243
16,GGAGTACC,0.0138
17,ATGAAATC,-0.0913
18,AAGATTCC,-0.0837
19,GCTGAACC,-0.161
20,CGTGTATC,0.0402
21,CCCCCTAC,-0.135
22,CCAATGAA,-0.185

row,Sequence,PBM E-score
1,ATATAGTC,0.128
2,ACCACTGA,-0.202
3,GGAACCGA,0.0422
4,CATTGACA,-0.198
5,AGTATATG,-0.0748
6,CGCCCGGC,0.31
7,AGGGCGTG,-0.145
8,CCCTCGTA,-0.192
9,AGTTCTCC,-0.0814
10,ATCCATGG,0.0265
11,CTAAATCC,0.299
12,GCTTGTAA,0.0749
13,CGGGATTC,0.219
14,CTTTGGTC,-0.0406
15,AACGCTAA,-0.114
16,CACGTCGA,-0.191
17,AGCACTAA,-0.212
18,AGGTAGGC,-0.212
19,CATTGAGG,-0.164
20,CCTTGGTA,0.0875
21,CACAGCAC,-0.168
